Results reported in paper PMC4336329 (PLoS ONE, 2015).
Out of some 310,000 compounds screened, about 2,200 (0.71%) showed an effect of 50% or more. The effect is printed as a negative number. The list shows a part of the results.

Each compound was assayed against human ether-à-go-go-related gene (hERG) potassium channel (human, UniProt Q12809) (assay: primary screen, population patch clamp on CHO cells stably expressing hERG).
human ether-à-go-go-related gene (hERG) potassium channel, sequence (Q12809 whole entry, looked up): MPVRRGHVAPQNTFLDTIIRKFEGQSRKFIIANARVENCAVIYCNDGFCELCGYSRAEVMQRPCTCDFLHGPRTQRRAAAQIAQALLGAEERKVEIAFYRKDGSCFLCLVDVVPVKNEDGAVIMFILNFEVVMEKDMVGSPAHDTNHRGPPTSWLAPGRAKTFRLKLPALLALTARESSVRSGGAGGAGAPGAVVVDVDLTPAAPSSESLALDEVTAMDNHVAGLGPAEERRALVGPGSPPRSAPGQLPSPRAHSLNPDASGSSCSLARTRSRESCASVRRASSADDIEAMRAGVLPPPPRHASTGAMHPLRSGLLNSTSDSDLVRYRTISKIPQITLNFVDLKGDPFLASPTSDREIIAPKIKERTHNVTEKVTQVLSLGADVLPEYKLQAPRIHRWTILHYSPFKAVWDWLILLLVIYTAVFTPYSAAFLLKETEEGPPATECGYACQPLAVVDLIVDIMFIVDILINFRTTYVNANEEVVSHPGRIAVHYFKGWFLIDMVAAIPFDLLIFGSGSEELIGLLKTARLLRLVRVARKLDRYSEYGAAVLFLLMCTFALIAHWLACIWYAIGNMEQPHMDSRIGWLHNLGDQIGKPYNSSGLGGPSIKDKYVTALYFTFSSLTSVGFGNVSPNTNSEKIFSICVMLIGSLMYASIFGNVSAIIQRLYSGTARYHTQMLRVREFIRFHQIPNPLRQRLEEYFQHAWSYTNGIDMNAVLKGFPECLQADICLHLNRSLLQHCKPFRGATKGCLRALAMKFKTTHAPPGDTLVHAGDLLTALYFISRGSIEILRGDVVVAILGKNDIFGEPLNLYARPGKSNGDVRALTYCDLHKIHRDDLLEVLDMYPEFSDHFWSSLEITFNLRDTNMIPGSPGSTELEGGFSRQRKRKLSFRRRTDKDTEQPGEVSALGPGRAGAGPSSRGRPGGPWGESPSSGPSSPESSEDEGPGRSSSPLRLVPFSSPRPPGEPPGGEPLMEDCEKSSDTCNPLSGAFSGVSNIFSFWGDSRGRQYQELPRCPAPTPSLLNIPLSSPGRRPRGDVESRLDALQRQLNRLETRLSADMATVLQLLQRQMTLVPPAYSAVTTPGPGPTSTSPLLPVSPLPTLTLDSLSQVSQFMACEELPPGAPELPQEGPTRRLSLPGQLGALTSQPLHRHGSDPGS

| SMILES | hERG current change (%, negative = inhibition) at 1uM [%] |
| --- | --- |
| CCO[C@@H]1OC(C(=O)N2CCN(Cc3ccc4c(c3)OCO4)CC2)=C[C@H](c2coc3ccccc3c2=O)[C@H]1CCCO | 9.29 |
| Cc1nc2ccccc2c(=O)n1-c1ccc(NS(=O)(=O)c2cc(F)ccc2F)cc1 | 5 |
| O=C(N/N=C/c1cn(CC(=O)N2CCOCC2)c2ccccc12)c1cccnc1 | 11.7 |
| COc1ccc(Cl)cc1C(=O)NNC(=S)NC(=O)/C=C/c1ccco1 | 11 |
| C/C(=C\c1ccco1)C1C(C#N)=C(N)OC2=C1C(=O)CC(C)(C)C2 (centres unmarked) | 7.43 |
| O=C(NC1CCCCCC1)C1CCC(CNS(=O)(=O)c2ccc(Br)s2)CC1 (centres unmarked) | 12.5 |
| COc1ccccc1N1CCN(C(c2cccs2)C(C)NC(=O)c2ccco2)CC1 (centres unmarked) | 5.62 |
| Cc1ccc(-c2nc3cc(NC(=O)C(C)C)ccc3o2)cc1C | 1.92 |
| CCOc1cc(S(=O)(=O)Nc2ccc(Cl)cn2)ccc1Cl | 14.4 |
| O=C(O)Cc1ccc(N=Nc2c(O)c(C(=O)O)cc3ccccc23)cc1 | 15.7 |
| COc1ccccc1C1C(C(C)=O)=C(O)C(=O)N1c1ccc(O)cc1 (centres unmarked) | 0.388 |
| COc1ccccc1NS(=O)(=O)c1ccc(NC(=O)c2[nH]nc(OC)c2[N+](=O)[O-])cc1 | 6.15 |
| CCc1ccc(CNC(=O)CCCn2c(=O)c3cccn3c3cccnc32)cc1 | 6.98 |
| COc1ccc(-c2nn(-c3ccccc3)cc2C(=O)O)cc1OC | 17.1 |
| CCOC(=O)C1(Cc2cccc(OC)c2)CCN(Cc2cccc(OC)c2O)CC1 | -22.8 |
| COC(=O)c1ccccc1NC(=O)CSc1nc(N)cc(N)n1 | 3.36 |
| COc1ccc(N(CCC#N)C(=O)/C(C#N)=C\c2cccs2)cc1 | 4.19 |
| N#Cc1ccccc1NC(=S)NC(=O)c1cccs1 | 19.7 |
| Cc1ccc(C)c(C(=O)NC(C)CCc2ccccc2)c1 (centres unmarked) | 10.5 |
| O=S1(=O)CC2N=C(N(Cc3c(F)cccc3Cl)c3ccccc3F)SC2C1 (centres unmarked) | 12.6 |
| Cc1cccc(C)c1NC(=O)COC(=O)c1c2c(nc3ccccc13)/C(=C\c1ccc3c(c1)OCO3)CCC2 | 2.44 |
| Brc1ccc(Oc2ncc(CN3CCOCC3)s2)cc1 | -2.83 |
| O=C(OCC(=O)N1CCCCCC1)c1ccccc1Br | 0.127 |
